In the supplement of paper PMC10126150 one finds switch fluorescence ratio data, which are given here for 67 sequences.

Values marked as one replicate rest on one cluster of the flow cell; about a third of the high ones do not repeat.

In the data set the test system is ATP. Put plainly: switch fluorescence ratio, 500 uM ATP over buffer (Cy3 cluster intensity, sum of 5 cycles each) (fold (ratio)); higher = stronger signal-on switching upon ATP binding; sequences stand for … in TCGTCGGCAGCGTCAGATGTGTATAAGAGACAGTTTTTTTTTTTTTTTTTTTTTTTTT…TC. The note with it: aptamer strand: ATP DNA aptamer (quencher-CACCTGGGGGAGTATTGCGGAGGAAGG + anchor), 100 nM annealed; ATP concentration: 500 uM; one replicate. A digest of the protocol: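 Per cluster, summed Cy3 intensity from the target cycles was divided by that from the buffer cycles to give the fluorescence ratio, then averaged per switch-domain sequence. Clusters outside 100-1000 RFU were excluded. The Cy3-labelled switching-strand clusters, on a modified Illumina MiSeq flow-cell, were annealed to 100 nM quencher-labelled ATP aptamer and imaged in selection buffer, then after 15 min with 500 uM ATP at 22 °C, for five cycles with NaOH stripping and re-annealing between them.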
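Further: ATP exposure 15 min at 22 °C before imaging.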

Regarding GACGTGGGTA, the switch fluorescence ratio came to 1.01.
In the case of CCGTGAGGCG it was 0.959.
For the sequence TAATGCGTAC, the switch fluorescence ratio came out at 1.32.
CGTCCCGAGT: the switch fluorescence ratio is 1.02.
In the case of AGTGACCCG it was 0.971.
In the case of CATTGGCGGA it was 1.06.
In the case of GAAAGACCGA it was 1.18; in that of ACGGCATCT, 1.1.
Turning to AATTACATCT, the switch fluorescence ratio was found to be 1.21.
The same measure for GGCCTAGAAG: 1.02.
In the case of TCCAACAGTG it was 2.06.
In the case of CACTTATAAT it was 1.03; in that of GACCGGGGAC, 1.07.
With CAGGGTATGT, the switch fluorescence ratio amounted to 0.984.
The same measure for ATGGCGGTGG: 1.01; for CCATGTGGGT: 1.03; for CGCTTTTAAA: 1.01.
In the case of TCGCGTAAAA it was 0.979; in that of CGTGTCTGCG, 0.987; in that of TAGTTACTGA, 1.09.
The same measure for AAGCGCTTTG: 1.01; for CGCGGGACCA: 0.999.
As for CTTGCTAGTT, the switch fluorescence ratio was 0.974.
For GCGCCACGCG, the switch fluorescence ratio was found to be 0.978.
In the case of TCAATGATGT it was 1.02; in that of CGATCCGCAG, 6.61.
In the case of GGCGAATGTA it was 0.944.
The same measure for TGTCCTGAAG: 1.02.
For the sequence GCCACGGTTT, the switch fluorescence ratio was 1.01.
The same measure for GCCTTCCGCC: 4.7; for GTATATCTGG: 0.994.
For the sequence AACTACTGTA, the switch fluorescence ratio amounted to 1.86.
In the case of GATGGAATTC it was 1.07.
In the case of TCGCCACATA it was 1.17; in that of GATTAGACCC, 0.973; in that of CCATAGTCGA, 1.26.
As for GGGCGGCTAG, the switch fluorescence ratio is 0.949.
As for GTTAGTTTAA, the switch fluorescence ratio stood at 1.02.
The same measure for AACAGTTGCG: 0.965; for GCAGTTAGCT: 0.999.
The same measure for ACATTGTCTC: 0.974.
In the case of TAACACTAGG it was 0.968; in that of CGTCGTAGGA, 0.985.
Consider TGACGGGATA, for which the switch fluorescence ratio turned out to be 1.32.
In the case of TTACAATAGG it was 1.08; in that of GACCGAATT, 0.989.
In the case of TAGGTTACGT, the switch fluorescence ratio was determined as 1.01.
In the case of ATCATATTAC it was 1.02; in that of GCAAAGTGAC, 1.08.
The same measure for GATCTGCGGC: 1.08; for GGATTTGTGC: 0.961.
In the case of ATGAATTTCA it was 0.96; in that of AACTGTACTG, 1.47.
As for GCAGAACTGG, the switch fluorescence ratio amounted to 1.03.
As to ATACTAGATG, the switch fluorescence ratio turned out to be 1.03.
In the case of GCCTAATTAA it was 1.03.
With GCATAAGCTT, the switch fluorescence ratio was found to be 1.03.
In the case of CATCTTACAC it was 1.01.
In the case of GCTATGATGC it was 0.994.
In the case of GTGGTCGTCG it was 1.03; in that of TCCTTGTGGC, 1.08.
With CGAAGTCCTA, the switch fluorescence ratio was found to be 0.983.
The same measure for TTCGTATGGA: 0.958; for TTTCCAGTTA: 1; for GCTACCTGTC: 0.976.
As to ACGAACCTAT, the switch fluorescence ratio was 1.27.
The same measure for GTTTGGGCAC: 0.973.
